ChEMBL document CHEMBL4888484, “Replenishing the malaria drug discovery pipeline: Screening and hit evaluation of the MMV Hit Generation Library 1 (HGL1) against asexual blood stage Plasmodium falciparum ,using a nano luciferase reporter read-out” (2022)
Among all 150,000 compounds or so, about 540 (0.36%) showed an effect of 50% or more. The list shows a part of the results.

Test system: Plasmodium falciparum
Assay: Primary screen in NF54 nanoGlo assay, in single point, at 2uM, 72h; a lower Z score goes with more inhibition
Format: functional, Erythrocyte
Conditions: timepoint 72 hour

Structure (SMILES)	% Inhibition	Z score
CC1CC1C(=O)N1CCOC(CS(=O)(=O)NCc2ccccn2)C1 (configuration not stated)	-1%	0.12
O=C(CCc1ccco1)NC[C@@]12CCC[C@@H]1OCC2	-10%	0.98
CC(C)c1cc(=O)[nH]c(-n2nc(C3CC3)cc2NC(=O)c2ccccc2C(F)(F)F)n1	18%	-3.33
OCCN1CCOC[C@H]1c1ccc(F)cc1	8%	-0.91
CC(C)COc1ccc(-c2cc(C(=O)N3C[C@H](C4CC4)[C@@H](N)C3)[nH]n2)cc1	2%	-0.3
CN1CCN(C(=O)c2cc(=O)[nH]c(C3CC3)n2)c2ccccc2C1	-5%	0.85
CC(=O)Nc1cc(F)c(S(=O)(=O)OCC(F)(F)F)cc1Cl	2%	-0.35
FC(F)(F)c1cccc(N2CCN(c3ncnc4[nH]ccc34)CC2)c1	3%	-0.67
CCc1c(C(=O)NC(C)C2CCCO2)csc1C (configuration not stated)	0%	0.07
CC(C)(C)c1ccc([C@@H]2CCCN2C(=O)c2cccnc2O)cc1	3%	-0.29
O[C@H]1CN(CCCC(F)(F)F)C[C@@H]1N1CCN(c2ccccn2)CC1	-6%	1.13
Cc1sc(C(=O)N2CCNC(=O)C2(C)C)cc1-c1ccc(F)cc1	13%	-1.56
C[C@@H]1C[C@H]1C(=O)Nc1cccc(-c2cn[nH]c2)c1	4%	-0.74
C[C@@H](CN(C)C(=O)Cc1cccc(Br)c1)C(=O)O	-2%	0.2
CCCC1CC(C(=O)NC(C#N)c2ccc(F)cc2F)CCO1 (configuration not stated)	0%	-0.04
CCOc1ccc(-c2nc(CN3CCO[C@H]4COCC[C@H]43)co2)cc1	-10%	1.75
CC(C)CC(=O)N[C@H]1CCCC(F)(F)C1	4%	-0.51
CC(C)c1noc(Cc2ccc(NC(=O)NCc3ccco3)cc2)n1	-4%	0.54
Cc1scc(CN2CCc3ccccc3C2)c1C	-19%	1.8

Structure (SMILES)	% Inhibition	Z score
Cc1cc(N2CC3CC2CO3)nc(C2CC2)n1 (configuration not stated)	-13%	1.64
CC1CN(C)CC(C)N1C(=O)c1ccc(-n2cc(Br)cn2)nn1 (configuration not stated)	-2%	0.36
COc1ccnc(CN(C)Cc2cn(C)nc2C)c1OC	-7%	1.37
CCCn1nccc1-c1ccc(CNC(C)=O)cn1	7%	-0.91
Cc1c(Br)cccc1CCNC(=O)C1CS(=O)(=O)C1	-9%	1.21
CCc1c(C)nc(-c2cccc(C)c2)nc1N1CCN(C(=O)C[C@@H](C)CC(C)(C)C)CC1	-20%	2.85
CNc1cc([C@H]2C[C@@H](NC(=O)NCCc3ccccc3F)C2)nc(N)n1	-19%	3.21
Cc1ncc(CC(=O)N(C)Cc2csc(-c3ccccc3)n2)c(=O)[nH]1	4%	-0.71
Cc1ccc(CN2C[C@H](C(=O)NCCc3ccncc3)C3(CCOCC3)C2)s1	-1%	0.1
CN(C)c1ccc(-c2nc([C@H]3CCOC3)no2)cn1	-2%	0.38
Cc1cc(C)n(-c2ccc(C(=O)N3CCN(c4ccccc4F)CC3)cc2)n1	-6%	0.75
CN(C)CC1(O)CCC2(CCN(C(=O)C3CCCC3)CC2)CC1	-8%	1.59
Cc1nn(C)cc1S(=O)(=O)N1CCN[C@H](C)C1	-1%	0.07
CC(=O)Nc1c2n(c3ccccc13)C[C@@](C)(C(=O)NC1CCCC1)N(Cc1ccccc1Cl)C2=O	-3%	0.33
COc1ccc(C(=O)N[C@H](C(=O)NCC2CCCCC2)C(C)C)cc1	-16%	2.28
CCc1cnc(NCCc2nc(C)cc(C)n2)nc1	-11%	1.11
Cc1cc2c(cc1C)NC(C(F)(F)F)=CC(c1cccs1)=N2	-16%	3
CC(C)c1nnsc1CNc1cc(CN)ncn1	-1%	0.13
NS(=O)(=O)c1cccc2c1CCCN2CC(=O)Nc1cccc(N2CCCC2=O)c1	9%	-1.23

Structure (SMILES)	% Inhibition	Z score
CCN=C(NCc1cccc(N(C)C)n1)NCC(C)(C)OC	8%	-1.48
CN1CCN(S(=O)(=O)c2cnn(C3CCCC3)c2)C[C@@H]1CO	-5%	0.72
CC(CC(O)c1ccccc1)Nc1nc(C(C)C)no1 (configuration not stated)	-7%	0.85
Cc1cc(C(=O)N2CC3CCCCC3C2)nn1C (configuration not stated)	-10%	1.23
CCc1ccc(NC(=O)Cn2nc(NC)c(-c3nc(-c4ccccc4)no3)c2N)cc1	-4%	0.54
CCN(CC)c1ncc(CN2CCCC3(C2)OCCO3)s1	-2%	0.26
CCNC(=O)NCCc1ncc(C)n1C1CCCCCCC1	-10%	1.5
Cc1nc(C(=O)Nc2cc(N3CCNC3=O)ccc2F)c(C)s1	33%	-3.79
c1cncc(CN2CCn3nc4c(c3C2)CCC4)c1	-11%	1.36
Cc1cccc(CN2CCC[C@@]3(CCN(C(=O)c4cc(C(C)C)n[nH]4)C3)C2)c1	1%	-0.13
O=C1CCCN1CCN1CCO[C@@H](Cc2ccccc2Cl)C1	-2%	0.34
Cc1ccc(-c2noc(-c3ccc(N4CCN(c5ncccn5)CC4)nc3)n2)cc1	0%	0.08
CO[C@@H](C)c1noc(-c2scnc2C)n1	34%	-3.81
CN(C)C(=O)c1cccc(S(=O)(=O)N2CC[C@H](OCc3ccccn3)C2)c1	-9%	1.15
COc1cccc(CC(=O)N2CC(N3C(=O)CNC3=O)C2)c1	-11%	2.09
CN1CCN(C(=O)OCC(F)(F)F)CC1	-3%	0.44
Fc1cnc(N2CCO[C@H](c3ccccc3)C2)nc1	-11%	1.37
O=C1CCN(C(=O)C[C@@H](c2ccccc2)c2ccc(Cl)cc2)CCN1	-6%	1.23
